# Where “and” joins values, the source holds several entries; their conditions need not be identical. Equal entries are not always repeated. Structures can show the parent of a compound that is named as a salt. The campaign covered roughly 5,800 compounds. About 620 (11%) showed activity.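 How the source made its calls: active = score above a cut-off or among the top three wells of a plate; in these data no inactive exceeds 0.85.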 The entries are a selection whose mix differs from that of the whole data set.
# Tested on: primary human hepatic stellate cells (donor 1)
# Experiment: scaled lipid accumulation score (0 = DMSO-like, 1 = nortriptyline-like); higher = stronger HSC inactivation (lipid re-accumulation), active = hit call of the paper
# Details: 48 h
# Experimental: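 Primary lipid accumulation screen in primary human hepatic stellate cell myofibroblasts (donor 1, passage 8) in 384-well plates. 100 nL of library compound was pin-transferred into 30 µL medium in duplicate, and cells were treated for 48 h. The 'Scaled' score combines distance from plate baseline, toxicity and reproducibility penalties, and is normalised to nortriptyline (positive) and DMSO (negative) controls on each plate. A hit is defined as scaled >0.85 or among the top 3 wells per plate.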
# [1] = library stock concentration: 10 mM
# [2] = library stock concentration: 3.33 mM
# [3] = library stock concentration: 80 uM
# [4] = library stock concentration: 400 uM
# [5] = library stock concentration: 2 mM
compound,measurement,setting,value
O=C(COc1ccc(Cl)cc1)N1CCN(Cc2ccc3c(c2)OCO3)CC1 [Fipexide hydrochloride],scaled lipid accumulation score,,inactive: ≤ 0
same,scaled lipid accumulation score,[1],inactive: ≤ -0.009
CNC(C)CCC=C(C)C (centres undefined) [Isometheptene mucate],scaled lipid accumulation score,,inactive: ≤ 0
CN(Cc1cnc2nc(N)nc(N)c2n1)c1ccc(C(=O)N[C@@H](CCC(=O)O)C(=O)O)cc1 [Methotrexate],scaled lipid accumulation score,,inactive: ≤ 0
same,scaled lipid accumulation score,[2],inactive: ≤ 0
same,scaled lipid accumulation score,[1],inactive: ≤ 0
same,scaled lipid accumulation score,library stock concentration: 11 mM,inactive: ≤ -0.012
"CN(Cc1cnc2nc(N)nc(N)c2n1)c1ccc(C(=O)N[C@@H](CCC(=O)O)C(=O)O)cc1 (racemic) [Amethopterin (R,S)]",scaled lipid accumulation score,,inactive: ≤ 0
CN(Cc1cnc2nc(N)nc(N)c2n1)c1ccc(C(=O)N[C@@H](CCC(=O)O)C(=O)O)cc1 [Methotrexate hydrate],scaled lipid accumulation score,[1],inactive: ≤ 0
CN(Cc1cnc2nc(N)nc(N)c2n1)c1ccc(C(=O)N[C@@H](CCC(=O)O)C(=O)O)cc1,scaled lipid accumulation score,[1],inactive: ≤ 0
Cc1ccc2c(=O)c3ccccc3n(CCCN)c2c1C,scaled lipid accumulation score,[1],inactive: 0.501
COc1ccccc1N1CCN(CCCCNC(=O)c2ccc3ccccc3c2)CC1,scaled lipid accumulation score,,inactive: 0.307
CCC1NC(=O)c2cc(S(N)(=O)=O)c(Cl)cc2N1 (centres undefined) [Quinethazone],scaled lipid accumulation score,,inactive: 0.017
NC(=O)c1ccc[n+]([C@@H]2O[C@H](COP(=O)([O-])OP(=O)(O)OC[C@H]3O[C@@H](n4cnc5c(N)ncnc54)[C@H](OP(=O)(O)O)[C@@H]3O)[C@@H](O)[C@H]2O)c1 [Sodium beta-nicotinamide adenine dinucleotide phosphate],scaled lipid accumulation score,[1],inactive: ≤ -0.027
CC(O)(P(=O)(O)O)P(=O)(O)O [Etidronate disodium],scaled lipid accumulation score,library stock concentration: 8 mM,inactive: ≤ 0
"CC(O)(P(=O)(O)O)P(=O)(O)O [Etidronic acid, disodium salt]",scaled lipid accumulation score,,inactive: ≤ 0
Cc1cnc(C(=O)NCCc2ccc(S(=O)(=O)NC(=O)NC3CCCCC3)cc2)cn1 [Glipizide],scaled lipid accumulation score,,inactive: 0.161
same,scaled lipid accumulation score,[2],inactive: ≤ 0
same,scaled lipid accumulation score,library stock concentration: 4.5 mM,inactive: ≤ -0.006 and inactive: ≤ 0
same,scaled lipid accumulation score,[1],inactive: ≤ 0 and inactive: 0.167
Cc1cnc(C(=O)NCCc2ccc(S(=O)(=O)NC(=O)NC3CCCCC3)cc2)cn1,scaled lipid accumulation score,[1],inactive: ≤ 0
Cc1cc(-c2ncc(CC(=O)Nc3ccc(-c4cnccn4)cn3)cc2C)ccn1,scaled lipid accumulation score,[2],inactive: ≤ -0.009
same,scaled lipid accumulation score,[1],inactive: 0.036
CC(C)NC[C@H](O)COc1cccc2[nH]ccc12 [(S)-(-)-Pindolol],scaled lipid accumulation score,[1],inactive: 0.001
CC(C)NC[C@H](O)COc1cccc2[nH]ccc12 [S(-)-Pindolol],scaled lipid accumulation score,[1],inactive: ≤ -0.07
NC(=O)Nc1sc(-c2ccccc2)cc1C(N)=O [IKK-2 Inhibitor VI],scaled lipid accumulation score,[2],inactive: ≤ 0
CCc1ccc2c(O)c3c(cc2c1C(=O)OC)C(=O)c1c(O)ccc(O)c1C3=O [Bisanhydrorutilantinone],scaled lipid accumulation score,[1],inactive: 0.11
CN(C)[C@@H]1CCc2[nH]c3ccc(NC(=O)c4ccc(F)cc4)cc3c2C1.Cl,scaled lipid accumulation score,[1],active: 1.37
O=C(Cc1ccccc1)Nc1nc2ccc(Cl)cc2c2nc(-c3ccco3)nn12,scaled lipid accumulation score,[1],inactive: 0.596
c1cc2c3c(c1)c1c(n3CCNC2)CCCC1 [WAY 629 hydrochloride],scaled lipid accumulation score,[1],inactive: 0.253
"c1cc(-c2cnn3cc(-c4ccc(OCCN5CCCCC5)cc4)cnc23)ccn1 [AMPK Inhibitor, Compound C]",scaled lipid accumulation score,[2],inactive: ≤ 0
c1cc(-c2cnn3cc(-c4ccc(OCCN5CCCCC5)cc4)cnc23)ccn1 [Dorsomorphin],scaled lipid accumulation score,[3],inactive: ≤ 0
same,scaled lipid accumulation score,[4],inactive: ≤ 0
same,scaled lipid accumulation score,[5],inactive: 0.557
same,scaled lipid accumulation score,[1],inactive: 0.469
O=S(=O)(O)c1cc(I)c(O)c2ncccc12,scaled lipid accumulation score,[1],inactive: ≤ 0
Cn1cc(C2=C(c3cn(CCCN)c4ccccc34)C(=O)NC2=O)c2ccccc21 [Bisindolylmaleimide VIII (acetate)],scaled lipid accumulation score,library stock concentration: 1 mM,inactive: ≤ 0
CCN1C(=CC(C)=O)Sc2ccc(OC)cc21,scaled lipid accumulation score,[2],inactive: ≤ -0.009
same,scaled lipid accumulation score,[1],inactive: ≤ 0
O=C1[C@H](CC[C@H](O)c2ccc(F)cc2)[C@@H](c2ccc(O)cc2)N1c1ccc(F)cc1 [Ezetimibe],scaled lipid accumulation score,[2],inactive: ≤ 0
same,scaled lipid accumulation score,library stock concentration: 4.9 mM,inactive: ≤ 0
same,scaled lipid accumulation score,[1],inactive: ≤ 0 and inactive: ≤ -0.027
O=C1[C@H](CC[C@H](O)c2ccc(F)cc2)[C@@H](c2ccc(O)cc2)N1c1ccc(F)cc1,scaled lipid accumulation score,[1],inactive: ≤ 0
CC1COCCN1c1cc(C2(S(C)(=O)=O)CC2)nc(-c2cccc3[nH]ccc23)n1 (centres undefined),scaled lipid accumulation score,[2],inactive: ≤ 0
same,scaled lipid accumulation score,[1],inactive: ≤ -0.001
CN(C)C/C=C/C(=O)Nc1cccc(Nc2ncc3c(n2)N(C)c2ccccc2C(=O)N3C)c1,scaled lipid accumulation score,[3],inactive: ≤ -0.009
same,scaled lipid accumulation score,[4],inactive: 0.1
same,scaled lipid accumulation score,[5],inactive: 0.846
same,scaled lipid accumulation score,[1],inactive: 0.566
